Measurements taken from PubChem BioAssay AID686978 (National Center for Advancing Translational Sciences (NCATS), 2013).
Values joined by “and” are separate entries in the source; they are usually repeats but may differ in a detail not shown here. Equal entries are not always repeated. Out of some 420,000 compounds screened, about 64,000 (15%) were called active. Inconclusive means that the source gave no clear call. Such entries were picked first, then a sample of the others. The call rests on the fitted dose curve; in most records, active means well fitted inhibition curve with a large enough effect; inconclusive means small, poorly fitted or top-dose-only effect; inactive means flat fitted curve, though single readings scatter. A potency beside an inconclusive call is a rough fit, not a confirmed value.

assay: qHTS for Inhibitors of human tyrosyl-DNA phosphodiesterase 1 (TDP1): qHTS in cells in absence of CPT; details: DT40 Tdp1-/- hTDP1 cells, no CPT, ATP luminescence, 48 h; activity change, negative = growth inhibition: at 46.2 µM (top of the series); further: nearly all actives have a fitted effect of over 55% in size
Method in brief: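 Growth of hTDP1-complemented DT40 Tdp1-knockout cells is measured by ATP luminescence after at least 48 hr compound exposure at 37 °C, with DMSO substituting for the 20 nM CPT used in the parallel screen.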
On the % scale 0 is the no-effect control and ±100 the full control effect; potency means the concentration at half of the fitted maximal effect; tags describe the fitted curve by direction and shape.

Structure (SMILES) | Potency | activity change, negative = growth inhibition
CC(=O)Nc1sc(C)c(C)c1C(=O)OCC(=O)NC(C)c1ccccc1 (stereo not given) | inconclusive: 29.1 µM [inhibitor, single point] | 
COC(=O)c1ccc2c(=O)n(CCCN3CCOCC3)c(=S)[nH]c2c1 | inactive | 
CCC(=O)/C=C1/Sc2ccccc2N1CC | inconclusive: 29.1 µM [inhibitor, single point] | 
O=C(Nc1ccc2c(c1)OCO2)C1CC(c2cccc(Br)c2)=NO1 (stereo not given) | inactive | 
O=C(Nc1ccccc1)c1ccc(OC(=O)c2ccccc2)cc1 | inactive | 
Cc1ccc(CSc2nnc(-c3ccncc3)n2CC2CCCO2)cc1 (stereo not given) | inactive | 
O=C(Nc1cccc(O)c1)c1cc(-c2ccccc2Cl)on1 | inactive | 
Cn1c(/C=C/c2ccc(Br)cc2)nc2ccccc2c1=O | active: 18.4 µM | 
O=C(COc1ccc(Br)cc1)NCCNC(=O)c1ccncc1 | inactive | 
COc1ccc(-c2ccc(=O)n(Cc3cccc(Cl)c3)n2)cc1 |  | inconclusive: -31.5% [inhibitor]
COc1ccc(CS(=O)(=O)CC(C)(O)c2ccccc2Cl)cc1 (stereo not given) | inconclusive: 20.6 µM [inhibitor, single point] | 
COCCN(C(=O)COC(=O)/C=C/c1ccc2ccccc2n1)c1c(N)n(Cc2ccccc2)c(=O)[nH]c1=O | inconclusive: 25.9 µM [inhibitor, single point] | 
CCc1ccc(C2CC(=O)NC(SCC(=O)OC(C)C)=C2C#N)cc1 (stereo not given) | inconclusive: 29.1 µM [inhibitor, single point] | 
CCc1cccc2sc(NC(=O)C3CC3)nc12 | inconclusive: 23.1 µM [inhibitor, single point] | 
COc1ccc(C(CNC(=O)c2cccc(S(=O)(=O)Nc3cccc(C)c3)c2)N2CCOCC2)cc1 (stereo not given) | inconclusive: 10.3 µM [inhibitor, partial curve] | 
S=C1NCCNC(=S)NCCOCCN1 | inactive | 
CC1(C)Cc2ccccc2-c2nc3n(c(=O)c21)CCCS3 | inconclusive: 16.4 µM [inhibitor, single point] | 
COC(=O)c1c(C)oc2c1cc(NS(=O)(=O)c1cccs1)c1ccccc12 | inactive | 
Cc1cccc(C)c1Nc1nnc(SCC(=O)NCc2ccco2)s1 | inactive | 
COc1ccc(N2CCN(C3CC(=O)N(Cc4ccccc4)C3=O)CC2)cc1 (stereo not given) | inconclusive: 29.1 µM [inhibitor, single point] | 
CCCS(=O)(=O)N1CCC(C(=O)Oc2ccc(OC)cc2)CC1 | inactive | 
COc1ccccc1N1CCN(S(=O)(=O)c2cc3c(cc2C)NC(=O)CO3)CC1 | inconclusive: 29.1 µM [inhibitor, single point] | 
CCOC(=O)Cc1csc(NS(=O)(=O)c2ccc(SC)cc2)n1 | inactive | 
Cc1ccc(NC(=O)CNC(=O)Cc2cccc3ccccc23)c(O)c1 | inactive | 
CCN(CC)S(=O)(=O)c1ccc(NC(=O)NCc2noc3ccc(C)cc23)cc1 | active: 23.1 µM | 

Structure (SMILES) | Potency | activity change, negative = growth inhibition
CCOc1ccc2oc(C(=O)Nc3ccc(N4CCOCC4)cc3)c(C)c2c1 |  | inconclusive: -33.4% [inhibitor]
N=c1c(C(=O)NCCc2ccccc2)cc2c(=O)n3ccccc3nc2n1CCCN1CCOCC1 | active: 14.6 µM | 
Cc1ccc(CNC(=O)c2oc3c(c2C)-c2nn(Cc4ccc(Cl)cc4)cc2CC3)cc1 | active: 9.2 µM | 
COc1cc(C(=O)Oc2ccccc2/C=N/NC(=O)c2ccc(C)cc2)cc(OC)c1OC | active: 0.651 µM | 
CN1CCN(C(=O)C2CCCN(S(=O)(=O)c3ccc(Cl)cc3)C2)CC1 (stereo not given) | inactive | 
Cc1ccccc1-c1nc2cc(Cl)ccc2c(=O)o1 | active: 16.4 µM | 
CCSc1nc2ccccc2c(=O)n1Cc1ccc(F)cc1 | inactive | 
Brc1ccc(N=C(c2ccccc2)c2ccncc2)cc1 | inconclusive: 16.4 µM [inhibitor, single point] | 
COc1ccc(NC(=O)COC(=O)CC23CC4CC(CC(C4)C2)C3)c([N+](=O)[O-])c1 | inconclusive: 16.4 µM [inhibitor, single point] | 
CCOC(=O)c1ccc(NC(=O)Nc2cccc(OCc3cc(=O)n4ccc(C)cc4n3)c2)cc1 | inconclusive: 20.6 µM [inhibitor, single point] | 
CCOC(=O)C1(CC2CC2)CCN(S(=O)(=O)/C=C/c2ccccc2)CC1 | inactive | 
COc1ccc(NC(=O)CCc2nc3cccnc3n2Cc2cccs2)c(OC)c1 | inconclusive: 23.1 µM [inhibitor, single point] | 
O=C(C1CCN(S(=O)(=O)N2CCOCC2)CC1)N1CCN(c2ccccc2)CC1 | inconclusive: 8.2 µM [inhibitor, partial curve] | 
CCOC(=O)Cc1csc(NC(=O)Cc2ccc([N+](=O)[O-])cc2)n1 | inactive | 
CC(=O)CSc1nnc2cc(C)c3ccccc3n12 | inconclusive: 25.9 µM [inhibitor, single point] | 
COc1ccccc1-c1nc2c3ccccc3nc(=S)n2[nH]1 | inactive | 
Cc1ccc2oc(C(=O)NCC(c3ccco3)N3CCCC3)c(C)c2c1 (stereo not given) | inconclusive: 32.6 µM [inhibitor, partial curve, poor fit] | 
Cc1ccccc1/C=c1\s/c(=C\C(=O)C(C)(C)C)[nH]c1=O | active: 10.3 µM | 
CC(C)[C@H](NC(=O)c1ccccc1)C(=O)OCC(=O)Nc1sccc1C(N)=O | inconclusive: 18.4 µM [inhibitor, single point] | 
Cc1ccc2nc(-c3ccccc3O)c(Nc3ccc4c(c3)OCCO4)n2c1 | inconclusive: 29.1 µM [inhibitor, single point] | 
Cc1cc(N2CCN(c3ccccc3F)CC2)n2cnnc2n1 | inconclusive: 29.1 µM [inhibitor, single point] | 
COC(=O)C(C(=O)OC)c1ccccc1NS(=O)(=O)c1c(C)cc(C)cc1C | active: 20.6 µM | 
CCN(CC)C(=O)Cn1cc(SCC(=O)NC2CCCCC2)c2ccccc21 | inactive | 
CC1=CC(C)(C)n2c(O)c(N=NC(N)=S)c3cccc1c32 | inconclusive: 3.66 µM [inhibitor, partial curve] | 
CN(c1ccccc1)S(=O)(=O)c1ccc(NC(=O)c2ccccc2C(=O)O)cc1 | inconclusive: 29.1 µM [inhibitor, single point] | 

Structure (SMILES) | Potency | activity change, negative = growth inhibition
COc1ccccc1N1CCN(CC(=O)c2c(C)n(C)c3ccccc23)CC1 | inconclusive: 5.8 µM [inhibitor, partial curve] | 
Clc1cccc(Cl)c1Cn1nnc(N2CCCC2)n1 | inactive | 
COc1ccc(C(=O)Nc2ccc3nc(N4CCN(C)CC4)cc(C)c3c2)c(OC)c1 | inconclusive: 29.1 µM [inhibitor, single point] | 
CCN(C(=O)CN1C(=O)NC(c2ccccc2)(c2ccccc2)C1=O)c1ccccc1 | inconclusive: 29.1 µM [inhibitor, single point] | 
CC(C)c1ccc(NC(=O)CSc2nc(=O)[nH]c3c2CCCC3)cc1 | active: 20.6 µM | 
CCC1=C([N+](=O)[O-])C(c2ccc3c(c2)OCO3)NC(=O)N1 (stereo not given) | inactive | 
O=C(NC(=S)NCCC1=CCCCC1)c1ccco1 | inconclusive: 29.1 µM [inhibitor, single point] | 
CC1CCN(CC(O)COC2CC(C)CC(C)(C)C2)CC1 (stereo not given) | inconclusive: 32.6 µM [inhibitor, single point] | 
CC1CC(=O)Nc2ccccc2N1C(=O)CSc1nnnn1C(C)C (stereo not given) | inactive | 
COc1cccc(NC(=O)C2C3C=CC4(O3)C2C(=O)N(CCCN2CCCC(C)C2)C4C(=O)NC2CCCCC2C)c1 (stereo not given) | inactive | 
Cn1nc(NC(=O)CC23CC4CC(CC(C4)C2)C3)c2c(F)cccc21 | inactive | 
O=C(NCCn1cc(SCc2ccc(C(F)(F)F)cc2)c2ccccc21)c1ccccc1F | inconclusive: 23.1 µM [inhibitor, single point] | 
Cn1cccc1/C=C1\SC(=S)N(NC(=O)c2ccc(Cl)cc2)C1=O | inactive | 
O=C(CN1C(=O)C2CC=CCC2C1=O)Nc1nnc(C2CC2)s1 (stereo not given) | inactive | 
Cc1cccc(-c2cc3nc(C)cc(=O)n3[nH]2)c1 | inconclusive: 25.9 µM [inhibitor, single point] | 
C[N+]1(CC(=O)c2ccc(F)cc2)CCc2ccccc2C1 (stereo not given) | inactive | 
Cc1cc(Br)ccc1NC(=O)CN(C)C(=O)CSC(=S)N1CCCC1 | inconclusive: 13 µM [inhibitor, partial curve] | 
COc1cccc(CNC(=O)CCn2ccc3cc(S(=O)(=O)N4CCCC4)ccc32)c1 | inactive and inconclusive: 18.4 µM [inhibitor, single point] | 
C(/CCc1ccccc1)=N\Nc1nc2ccccc2[nH]1 | active: 18.4 µM | 
CCOC(=O)C1CCCCN1C(=O)c1ccc2nc(Cc3ccc(OC)cc3)oc2c1 (stereo not given) | inconclusive: 18.4 µM [inhibitor, single point] | 
COC(=O)[C@]12CCCCC=C1N(Cc1ccc3c(c1)OCO3)C(=O)[C@H](CC(=O)NCCCCc1ccccc1)C2 | inconclusive: 29.1 µM [inhibitor, single point] | 
CN(Cc1ccccc1)C(=O)c1ccc(COc2ccccc2)cc1 | inconclusive: 29.1 µM [inhibitor, single point] | 
COc1ccccc1C(=O)NCCC(=O)N1CCN(c2cccc(C(F)(F)F)c2)CC1 | inconclusive: 25.9 µM [inhibitor, partial curve, poor fit] | 
COc1ccccc1C1C2CCCCC2(O)CCN1CC(=O)Nc1ccccc1 (stereo not given) | inconclusive: 29.1 µM [inhibitor, single point] | 
COc1ccc(NC(=O)N2CCC(C(=O)c3ccc4c(c3)OCCO4)CC2)cc1 | inconclusive: 29.1 µM [inhibitor, partial curve, poor fit] | 
